Data as given in PubChem BioAssay AID504339 (National Center for Advancing Translational Sciences (NCATS), 2011).
The whole screen tested about 390,000 compounds, of which about 17,000 (4.4%) were called active. This list was built around the results that the source calls inconclusive (neither active nor inactive); the mix of calls is not that of the screen. The call rests on the fitted dose curve; in most records, active means well fitted inhibition curve with a large enough effect; inconclusive means small, poorly fitted or top-dose-only effect; inactive means no such curve, though single readings can be large or run the other way. Potencies beside an inconclusive call are fits to weak or partial responses and may not hold up.

Target: Lysine-specific demethylase 4A (Homo sapiens) (UniProt O75164)
Chain of UniProt O75164 (O75164 whole entry, looked up, the tested form may be a part): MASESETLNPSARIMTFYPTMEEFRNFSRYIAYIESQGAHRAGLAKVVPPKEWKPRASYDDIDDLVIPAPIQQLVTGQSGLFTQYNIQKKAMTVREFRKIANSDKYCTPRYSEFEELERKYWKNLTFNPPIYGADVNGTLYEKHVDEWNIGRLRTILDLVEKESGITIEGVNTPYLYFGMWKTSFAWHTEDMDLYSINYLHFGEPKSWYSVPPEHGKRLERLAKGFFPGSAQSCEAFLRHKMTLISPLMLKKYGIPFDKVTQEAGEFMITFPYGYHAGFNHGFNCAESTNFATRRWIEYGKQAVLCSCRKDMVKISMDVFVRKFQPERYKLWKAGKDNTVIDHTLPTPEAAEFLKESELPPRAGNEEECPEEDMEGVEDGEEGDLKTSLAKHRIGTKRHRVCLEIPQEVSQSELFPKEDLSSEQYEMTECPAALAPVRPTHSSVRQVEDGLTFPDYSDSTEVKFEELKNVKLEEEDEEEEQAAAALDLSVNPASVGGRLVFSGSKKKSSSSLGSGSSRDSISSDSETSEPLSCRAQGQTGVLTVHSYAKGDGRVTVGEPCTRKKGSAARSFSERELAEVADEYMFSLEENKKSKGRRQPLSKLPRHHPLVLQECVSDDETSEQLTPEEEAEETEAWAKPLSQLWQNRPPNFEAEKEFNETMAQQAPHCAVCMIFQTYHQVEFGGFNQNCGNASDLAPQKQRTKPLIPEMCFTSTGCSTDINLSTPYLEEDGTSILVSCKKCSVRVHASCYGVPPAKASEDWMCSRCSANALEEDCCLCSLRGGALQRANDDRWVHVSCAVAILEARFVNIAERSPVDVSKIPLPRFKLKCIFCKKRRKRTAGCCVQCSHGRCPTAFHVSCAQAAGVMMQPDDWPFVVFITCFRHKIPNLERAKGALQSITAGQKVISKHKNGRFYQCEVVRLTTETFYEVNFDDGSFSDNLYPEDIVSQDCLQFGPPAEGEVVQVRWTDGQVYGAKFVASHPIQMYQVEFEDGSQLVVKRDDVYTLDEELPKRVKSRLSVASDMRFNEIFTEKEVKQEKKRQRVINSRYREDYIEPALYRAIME
Assay: qHTS Assay for Inhibitors of JMJD2A-Tudor Domain; further: nearly all actives have a fitted effect of over 50% in size
Settings: AlphaScreen JMJD2A-Tudor / H3K4me3 peptide binding; series mostly up to 114 µM
Potency means the concentration at half of the fitted maximal effect; tags describe the fitted curve by direction and shape.

SMILES | Potency
CC1=C/C(=N\OS(=O)(=O)c2ccccc2)C(C(C)C)=CC1=O | inconclusive: 31.6 µM [inhibitor, single point]
CN(Cc1ccccc1)C(=O)N1CCOCC1 | inactive
Cc1cccc(OCCCn2ccnc2)c1 | inactive
CCC(OC(=O)c1cccs1)C(=O)NCc1ccc2c(c1)OCO2 (stereo unspecified) | active: 100 µM
CCOC(=O)C1=C(CSc2nc3c(cc2C#N)CN(C)CC3)OC(N)=C(C#N)C1c1ccc(F)cc1 (stereo unspecified) | inconclusive: 79.4 µM [inhibitor, partial curve]
CC1=NN(c2ccccc2C(=O)O)C(=O)C1N=Nc1ccccc1 (stereo unspecified) | inconclusive: 35.5 µM [inhibitor, partial curve]
O=C(NCc1ccccc1)c1ccc2c(=O)[nH]c3c(C(=O)NCC4CCCO4)sc(=S)n3c2c1 (stereo unspecified) | inconclusive: 50.1 µM [inhibitor, partial curve]
O=C(Nc1ccccc1)c1ccc(Br)c(S(=O)(=O)Nc2cccnc2)c1 | inconclusive: 70.8 µM [inhibitor, single point]
COc1cccc(Nc2sc(C(=O)c3ccc(Cl)cc3)c(N)c2C(=O)NCc2ccc(C)cc2)c1 | inconclusive: 39.8 µM [inhibitor, partial curve]
Cc1ccc(-c2cc(-c3ccco3)c(C#N)c(=O)[nH]2)cc1 | active: 79.4 µM
COc1ccccc1N1CC(C)(C)C(=O)N(C(=O)c2c(F)cccc2Cl)C1=S | inconclusive: 11.2 µM [inhibitor, full curve, poor fit]
Cc1ccc(-c2cn(CCN)c(-c3ccncc3)n2)cc1 | inconclusive: 63.1 µM [inhibitor, partial curve, poor fit]
COc1ccc(-c2ccc3c(c2)[C@@H]2C[C@H](N(C)C(=O)Nc4ccccc4)[C@H]([C@H](C)O)C(=O)N2CC3)cc1 | inconclusive: 56.2 µM [inhibitor, partial curve]
COc1ccc(C(NC(=O)c2cccc(F)c2)c2ccccc2)cc1 (stereo unspecified) | inactive
CCOC(=O)C1=NN(c2ccc(Cl)cc2)C(c2ccccc2)CC1=O (stereo unspecified) | inconclusive: 100 µM [inhibitor, partial curve]
Cc1c(NC(=O)C(C)OC(=O)c2c3c(nc4ccccc24)CCC3)c(=O)n(-c2ccccc2)n1C (stereo unspecified) | inconclusive: 50.1 µM [inhibitor, partial curve]
COc1ccc(S(=O)(=O)N2CCCCC2)cc1NC(=O)c1ccc(N2CCCC2=O)cc1 | inactive
CCc1ccc(C2/C=C\CNC(c3ccccc3)C(=O)N2Cc2ccc(C)cc2)cc1 (stereo unspecified) | inactive
N=c1c2c(ccn1CCCc1ccccc1)Oc1ccc3ccccc3c1C2c1ccccc1 (stereo unspecified) | inconclusive: 3.55 µM [inhibitor, full curve, poor fit]
O=C(CCS(=O)(=O)c1ccc(Br)cc1)Nc1ccc2c(c1)OCO2 | active: 50.1 µM
Cc1c(Cl)cccc1NC(=O)C1CCCN(c2ncnc3onc(C)c23)C1 (stereo unspecified) | inactive
COc1ccccc1CNS(=O)(=O)c1ccc2[nH]cc(C(=O)O)c(=O)c2c1 | active: 39.8 µM

SMILES | Potency
CC(C)CSc1nc2c(c(=O)[nH]c(=O)n2C)n1CC(O)COc1cccc2ccccc12 (stereo unspecified) | inconclusive: 56.2 µM [inhibitor, partial curve]
CCC(CO)Oc1cc(NCc2cc(C)cc(C)c2)c2ncn(C(C)C)c2c1 (stereo unspecified) | inconclusive: 39.8 µM [inhibitor, single point]
CCSc1ncc(Cl)c(C(=O)Nc2sc3c(c2C(=O)NCc2cccnc2)CCCC3)n1 | active: 100 µM
Cc1cc2c(c(=O)n1CCN(C)C)C(c1ccncc1)C(C#N)=C(N)O2 (stereo unspecified) | inactive
O=[N+]([O-])c1ccc2nc(Cl)nc(-c3ccccc3)c2c1 | inconclusive: 89.1 µM [inhibitor, partial curve]
CC1=CC(C)C(C(=O)O)C(C(=O)N2CCN(C)CC2)C1 (stereo unspecified) | inconclusive: 50.1 µM [inhibitor, partial curve]
Cc1ccc(Cn2cc(C(=O)c3ccc4c(c3)OCO4)c(=O)c3cc(C)ccc32)cc1 | inconclusive: 39.8 µM [inhibitor, full curve, poor fit]
CCOc1ccccc1Nc1nc(-c2sc(NC(=O)c3cccc(Cl)c3)nc2C)cs1 | inconclusive: 89.1 µM [inhibitor, partial curve]
COc1ccc(NC(=O)Nc2cccc([N+](=O)[O-])c2)cc1Cl | inconclusive: 56.2 µM [inhibitor, partial curve]
Cc1cc(C)cc(NC(=O)c2cnc3sc(N4CCCC4)nn3c2=O)c1 | inactive
CC(=O)N1CCC(=NNC(=O)c2cccs2)CC1 | inconclusive: 39.8 µM [inhibitor, single point]
COc1cc(-c2nc3ccc4ccccc4c3c3c2CCC3)cc(OC)c1O | inconclusive: 35.5 µM [inhibitor, partial curve]
CCOC(=O)C1=C(CN2CCN(c3ccc(OC)cc3)CC2)NC(=O)NC1c1ccc(Cl)cc1 (stereo unspecified) | active: 12.6 µM
CCn1cnc2c(=O)oc3ccc(S(=O)(=O)Nc4ccc(OC)cc4)cc3c21 | inactive
Cc1nc(Sc2ccc(Cl)cc2)c(C#N)c(C)c1[N+](=O)[O-] | inconclusive: 25.1 µM [inhibitor, full curve]
O=C(Nc1nnc(C2CC2)o1)c1ccc(S(=O)(=O)N2CCCCC2)cc1 | inconclusive: 56.2 µM [inhibitor, partial curve, poor fit]
Cc1[nH][nH]c(=O)c1C(c1c(C)[nH][nH]c1=O)c1cn(C)c2ccccc12 | inconclusive: 89.1 µM [inhibitor, partial curve]
Cc1cc(C)cc(-n2cnc3cc(C(=O)O)ccc32)c1 | inactive
O=C(c1ccc(Cl)c(S(=O)(=O)N2CCCC2)c1)N1CCN(c2ccccc2)CC1 | active: 12.6 µM
Cc1ccc(/C=N/N2CCN(Cc3ccccc3)CC2)cc1 | active: 79.4 µM
Cc1nc2nc(SCC(=O)NCCCN3CCCCCC3)nn2c(C)c1Cc1ccccc1Cl | inconclusive: 56.2 µM [inhibitor, partial curve]
O=C(CSc1nnc(-c2ccccc2)o1)Nc1ccccc1F | inconclusive: 25.1 µM [inhibitor, full curve]

SMILES | Potency
COc1ccc(N2CCN(C3CCCCC3NS(=O)(=O)c3ccccc3)CC2)cc1 (stereo unspecified) | inconclusive: 35.5 µM [inhibitor, partial curve]
COC(=O)c1c(NC(=O)CN2CCC3(O)CCCCC3C2c2ccccc2OC)sc(C)c1C (stereo unspecified) | inconclusive: 56.2 µM [inhibitor, partial curve]
CC[C@@H]1C=C(C(=O)O)[C@H](c2ccc(Cl)cc2)N1S(=O)(=O)c1ccc(C)cc1 | inactive
Fc1ccc(-c2n[nH]c(=S)n2/N=C/c2c[nH]c3ccccc23)cc1 | inconclusive: 44.7 µM [inhibitor, single point]
CC(=O)c1ccc(N=Nc2c(C)[nH]n(-c3ccccc3)c2=O)cc1 | inconclusive: 3.16 µM [inhibitor, full curve]
COc1ccc(NC(=O)Cc2nnc(SCC(=O)Nc3nccs3)n2C)cc1 | inconclusive: 15.8 µM [inhibitor, partial curve]
Cc1cccc(Oc2nc3c(c(=O)n(C)c(=O)n3C)n2Cc2ccccc2)c1C | inactive
CN(CC(=O)N1CCc2ccccc21)S(=O)(=O)c1cccc2cccnc12 | inconclusive: 56.2 µM [inhibitor, partial curve]
COC(=O)c1ccc(-n2c(C)cc(C(=O)CSc3cccc[n+]3[O-])c2C)cc1 | inactive
CCN(CC)C(=O)c1ncn(C)c1C(=O)N(CC)CC | inconclusive: 28.2 µM [inhibitor, single point]
COc1ccc(-n2cc(-c3ccccc3)c3c(NC4CCCC4)ncnc32)cc1 | inconclusive: 31.6 µM [inhibitor, full curve]
CCOC(=O)c1c(NC(=O)CSc2nnc(N)s2)sc(C)c1-c1ccc(C)cc1 | inconclusive: 50.1 µM [inhibitor, partial curve]
Cc1cc(/C([O-])=C(/C(=S)Nc2ccc(F)cc2)[n+]2ccccc2)c(C)n1-c1ccc(F)cc1 | active: 50.1 µM
COc1cc(/C=N/Nc2ccccn2)cc(OC)c1O | inactive
O=C(Nc1ccc2c(c1)OCO2)c1cnn2c(C(F)(F)F)cc(-c3ccco3)nc12 | inconclusive: 14.1 µM [inhibitor, full curve, poor fit]
CC[C@]1(O)C[C@@H]2CN(CCc3c([nH]c4ccccc34)[C@@](C(=O)OC)(c3cc4c(cc3OC)N(C)[C@H]3[C@@](O)(C(=O)OC)[C@H](OC(C)=O)[C@]5(CC)C=CCN6CC[C@]43[C@@H]65)C2)C1 | inconclusive: 56.2 µM [inhibitor, partial curve]
Cc1ccc(-c2nnc(NCc3nc4ccccc4[nH]3)c3ccccc23)cc1S(=O)(=O)N1CCCCC1 | inconclusive: 22.4 µM [inhibitor, partial curve]
CC(C)CC(=O)N1CCN(Cc2ccccc2[N+](=O)[O-])CC1 | active: 1.26 µM
COc1ccc(CNC(=O)C2CCCN(S(=O)(=O)c3c(C)noc3/C=C/N(C)C)C2)cc1 (stereo unspecified) | inactive
COCCNC(=O)COC(=O)c1nsc(Cl)c1Cl | inconclusive: 39.8 µM [inhibitor, single point]
CC1Cc2ccccc2N1C(=O)CCS(=O)(=O)c1ccc2c(c1)NC(=O)CS2 (stereo unspecified) | inconclusive: 17.8 µM [inhibitor, full curve, poor fit]
Cc1cc(C)c(S(=O)(=O)N(CC(=O)O)CC(=O)O)c(C)c1 | inconclusive: 39.8 µM [inhibitor, single point]
